# Measurements: paper PMC4336329 (PLoS ONE, 2015)
# The campaign covered roughly 310,000 compounds. About 2,200 (0.71%) showed an effect of 50% or more. Effects have a minus sign here. The list shows a part of the results.
# Target: human ether-à-go-go-related gene (hERG) potassium channel (human, UniProt Q12809)
# Assay: primary screen, population patch clamp on CHO cells stably expressing hERG
# human ether-à-go-go-related gene (hERG) potassium channel, sequence (Q12809 whole entry, looked up): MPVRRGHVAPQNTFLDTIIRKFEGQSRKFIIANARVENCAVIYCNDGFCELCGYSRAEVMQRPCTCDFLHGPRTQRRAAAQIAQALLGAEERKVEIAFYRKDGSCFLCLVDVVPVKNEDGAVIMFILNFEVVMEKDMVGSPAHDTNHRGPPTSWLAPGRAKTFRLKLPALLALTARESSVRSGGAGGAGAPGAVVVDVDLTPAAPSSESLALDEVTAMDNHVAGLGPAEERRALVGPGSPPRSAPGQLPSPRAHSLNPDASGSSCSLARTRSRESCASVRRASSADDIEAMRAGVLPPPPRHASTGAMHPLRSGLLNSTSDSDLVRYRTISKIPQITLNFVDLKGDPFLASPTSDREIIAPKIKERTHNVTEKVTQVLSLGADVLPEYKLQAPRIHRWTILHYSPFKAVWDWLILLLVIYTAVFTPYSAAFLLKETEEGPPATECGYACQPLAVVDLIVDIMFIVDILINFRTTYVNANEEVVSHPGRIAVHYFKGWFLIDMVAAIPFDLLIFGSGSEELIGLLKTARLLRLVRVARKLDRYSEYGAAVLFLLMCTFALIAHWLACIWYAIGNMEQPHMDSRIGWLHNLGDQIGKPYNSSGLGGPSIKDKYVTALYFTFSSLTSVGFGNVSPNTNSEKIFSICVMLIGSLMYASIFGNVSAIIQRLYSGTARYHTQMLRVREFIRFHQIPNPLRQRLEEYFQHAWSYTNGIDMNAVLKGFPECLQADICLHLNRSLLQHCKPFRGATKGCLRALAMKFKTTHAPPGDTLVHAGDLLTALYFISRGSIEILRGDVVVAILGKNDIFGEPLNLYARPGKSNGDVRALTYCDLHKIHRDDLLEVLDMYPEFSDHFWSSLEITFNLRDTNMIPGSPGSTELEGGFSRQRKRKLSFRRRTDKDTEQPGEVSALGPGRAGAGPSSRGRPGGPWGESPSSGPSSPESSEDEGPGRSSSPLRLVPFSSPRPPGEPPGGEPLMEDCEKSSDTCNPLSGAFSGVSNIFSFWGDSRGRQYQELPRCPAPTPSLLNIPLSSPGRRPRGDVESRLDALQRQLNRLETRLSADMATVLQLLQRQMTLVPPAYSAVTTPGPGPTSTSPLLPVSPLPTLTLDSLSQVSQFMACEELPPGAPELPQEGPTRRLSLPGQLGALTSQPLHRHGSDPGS
row,Structure (SMILES),"hERG current change (%, negative = inhibition) at 1uM [%]"
1,COCCN(C(=O)COC(=O)CC1CCCCC1)c1c(N)n(Cc2ccccc2)c(=O)[nH]c1=O,15.3
2,Cc1ccc(S(=O)(=O)NC2CCOC(C)(C)C2)cc1 (stereo not drawn),8.48
3,COCCN(C(=O)c1snc(C(N)=O)c1N)C(C(=O)NC1CCCCC1)c1cc(OC)c(OC)c(OC)c1 (stereo not drawn),15.4
4,CC(C)c1ccc(-c2cc(C(=O)N3N=C(C(F)F)CC3(O)C(F)F)c3ccccc3n2)cc1 (stereo not drawn),12.3
5,O=C(NCc1ccc(F)cc1)NC(=O)c1ccc(Cl)cc1,8.99
6,CCC(C(=O)NCCCN1CCN(C)CC1)n1nc(C)c2sc3ccccc3c2c1=O (stereo not drawn),4.63
7,CC1Sc2ccc(S(=O)(=O)CCC(=O)NCc3ccccc3)cc2NC1=O (stereo not drawn),10.7
8,COc1ccc(CCNCC(=O)Nc2ccc(C)c(S(=O)(=O)N(C)C)c2)cc1OC,-3.32
9,CCCCOc1ccc(C(=O)N2CCN(CC(=O)Nc3ccc(C)cc3)CC2)cc1OC,-17.7
10,COc1ccc(NC(=O)Cc2nnc(SCC(=O)Nc3nccs3)n2C)cc1,10.8
11,COc1ccc(Nc2ncnc3sccc23)cc1,12
12,Cc1cc(C)c(C(=O)CN2C(=O)NC3(CCCCC3)C2=O)cc1C,9.5
13,Cc1ccc(NC2=NCC(=O)N2Cc2ccc3c(c2)OCO3)c(C)c1,9.18
14,Nc1nc(Nc2ccc(Cl)cc2Cl)nc(C(F)(F)F)n1,8.42
15,Cc1oc(-c2ccccc2F)nc1CN1CCC(C(=O)NCc2cccs2)CC1,-18.7
16,S=c1nc(SCc2ccccc2)[nH]c2ccccc12,7.46
17,O=C(NC1CCCCCC1)C1CCCN(S(=O)(=O)c2cnc[nH]2)C1 (stereo not drawn),18.7
18,COc1cccc(CC2(CO)CCN(C(=O)NCCc3ccccc3)CC2)c1,17.8
19,Cc1c(C(=O)C(=O)NCc2cccs2)c2ccccc2n1C,-0.694
20,COc1ccc(-n2ccnc2SCC(=O)Nc2ccc(OC)cc2OC)cc1,8.97
21,CN1CCN(Cc2nc3ccccc3c(=O)n2Cc2nc(-c3ccc4ccccc4c3)cs2)CC1,2.57
22,CC(C(=O)NC1CCCc2ccccc21)N1CCN(c2ccc(F)cc2)CC1 (stereo not drawn),4.73
23,O=C(N/N=C/c1ccc(OC(F)F)cc1)C1=COCCO1,6.52

row,Structure (SMILES),"hERG current change (%, negative = inhibition) at 1uM [%]"
1,CCC(C(=O)NCCc1ccc(C)cc1)n1nc(C)c2c(C)n(-c3ccccc3)nc2c1=O (stereo not drawn),6.96
2,CN(C(=O)COc1ccc(Cl)cc1Br)C1CCCCC1,5.67
3,CC(OCC(O)CN1CCCCC1CCO)c1ccc(Cl)cc1 (stereo not drawn),15.4
4,CC1CCN(S(=O)(=O)c2cccc(C(=O)NCC3CCCO3)c2)CC1 (stereo not drawn),9.95
5,CN(Cc1ccccc1)C(=O)c1ccccc1NC(=O)c1ccccc1,-2.95
6,CCOC(=O)Cc1nnc(NCc2ccccc2)c2ccccc12,5.85
7,COc1ccnc(-n2cccc2C#N)c1C#N,2.41
8,CC(=O)CSc1ncnc2sc3c(c12)CCC(C)C3 (stereo not drawn),3.45
9,Cc1cccc(C)c1OC(=O)C(c1ccccc1)c1ccccc1,8.3
10,CCN1C(=O)c2cccc3c(S(=O)(=O)Nc4ccccn4)ccc1c23,12.7
11,O=C(NC1CCCCC1)C(c1ccccc1)N1CCOCC1 (stereo not drawn),8.98
12,CCCC(=O)N(c1ccc(F)cc1)C1C=CS(=O)(=O)C1 (stereo not drawn),13.8
13,CN1C(=O)C(Cc2cnc[nH]2)NC1=S (stereo not drawn),21.1
14,CCOC(=O)C(=CNc1ccc(C)cc1C)C(=O)OCC,15.7
15,C=C(C)COc1ccc(-c2[nH]ncc2Oc2ccc(OC)cc2)c(O)c1,-3.87
16,c1ccc2oc(-c3[nH]ncc3CN3CCC(N4CCSCC4)CC3)cc2c1,-32.6
17,Cc1cccc(OCC(=O)NN2C(=O)C3C4C=CC(O4)C3C2=O)c1 (stereo not drawn),17.8
18,CN1CCCN(CC(O)COCc2cccs2)CC1 (stereo not drawn),5.43
19,CN/C=C(/Cl)P(=O)(OC(C)C)OC(C)C,11
20,C=CCOc1ccc(/C=N/NC(=O)C(=O)N2CCCCCC2)cc1OC,9.96
21,O=[N+]([O-])c1ccc(N/N=C2\CC3CC=CC23)cc1 (stereo not drawn),6.62
22,Cc1ccc(C)c(S(=O)(=O)NNC(=O)c2sc(NS(=O)(=O)c3ccccc3)nc2C)c1,18.5
23,COc1ccc(CCN2CC(C(=O)NCCc3cnn(C)c3)CCC2=O)cc1 (stereo not drawn),13.4

row,Structure (SMILES),"hERG current change (%, negative = inhibition) at 1uM [%]"
1,COC(=O)c1cc(COC(=O)COc2ccc(C)c(C)c2)oc1C,16.9
2,CC(C)C(C)N(Cc1cccc(C(=O)O)c1)C(=O)c1ccc2ccccc2n1 (stereo not drawn),15.5
3,CCOc1ccccc1N1CCN(C(=O)c2ccccc2SCC(=O)N2CCCC2)CC1,5.55
4,O=C(O)CCC(=O)Nc1nnc(C(F)(F)F)s1,-2.48
5,C[C@H](NC(=O)c1nc[nH]c1C(=O)NCCCCCNC(=O)OC(C)(C)C)C(=O)OCc1ccccc1,19.3
6,CCOc1ccc(N2CC(C(=O)NCC(=O)Nc3ccc(F)c(F)c3F)CC2=O)cc1 (stereo not drawn),-3.93
7,CCCCC(=O)N/N=C/c1c(O)n(CCc2ccccc2)c(=O)[nH]c1=O,18
8,CC(=O)CSc1cc(C)nc2c(-c3ccccc3)c(C)nn12,9.8
9,COc1ccc(C(=O)N2CCN(CC(=O)N3CCOCC3)CC2)cc1,6.9
10,COc1ccc(NS(=O)(=O)c2cc(C(=O)N3CCC3)ccc2C)cc1,5.16
11,C/C(=N\N1CCN(C2c3ccccc3-c3ccccc32)CC1)c1ccco1,4.34
12,CCOC(=O)N1CCN(CC(O)COC2CC(C)CC(C)(C)C2)CC1.Cl (stereo not drawn),8.44
13,CC1(C)Cc2ccccc2-c2nnc(SCC(=O)Nc3ccc4c(c3)OCO4)n21,-41.6
14,COc1ccc2cc(CN(CC3CCCO3)C(=S)NCc3ccco3)c(=O)[nH]c2c1 (stereo not drawn),5.62
15,O=C(NCc1ccccc1)c1ccc2c(=O)n3c(nc2c1)CCCCC3,-5.17
16,CCn1c(=O)c([N+](=O)[O-])c(NCC2CCCO2)c2ccccc21 (stereo not drawn),6.48
17,CCn1cc(C(=O)N[C@H](C)c2ccccc2)c(=O)c2cc(F)c(N3CCN(C)CC3)cc21,8.37
18,Fc1cccc(CN2CCN(Cc3nc(-c4cnccn4)no3)CC2)c1,9.94
19,CCOc1ccc(N/C(N)=N/c2nc(CSc3nnc(C)s3)cc(=O)[nH]2)cc1,9.23
20,COc1ccc(C2(C)NC(=O)N(CC(=O)NCCC3=CCCCC3)C2=O)cc1OC (stereo not drawn),11.2
21,CCOC(=O)N1CCC(N2CC34C=CC(O3)C(C(=O)O)C4C2=O)CC1 (stereo not drawn),6.51
22,Nc1nnc(SCC(=O)Nc2ccccc2)s1,5.83
23,O=C(C1CC1)N1CCC(c2nc(-c3ccc(S(=O)(=O)NCC4CCCO4)cc3)no2)CC1 (stereo not drawn),5.99

row,Structure (SMILES),"hERG current change (%, negative = inhibition) at 1uM [%]"
1,CCOC(=O)C1CCN(CCC(=O)Nc2cccc(Cl)c2)CC1,-15.2
2,C=CCOC(=O)C1=C[C@@H](c2coc3ccccc3c2=O)C[C@@H](OCCCCO)O1,0.501
3,CCCC(=O)NC(Nc1ccc(S(=O)(=O)Nc2ncccn2)cc1)(C(=O)OCC)C(F)(F)F (stereo not drawn),20.3
4,CCN(CC)CCCNC(=O)c1sc2nc(-c3ccc(F)cc3)cn2c1C,-55.5
5,N#CCCN(Cc1cccnc1)C(=O)c1ccc(S(=O)(=O)N2CCOCC2)cc1,-3.28
6,Cc1ccc(CNC(=O)Cn2cccc2C(=O)c2ccccc2C)cc1,-0.152
7,O=C(CSc1ccccn1)Nc1ccc2c(c1)OCCO2,7.38
8,O=c1c2ccccc2ncn1-c1cccc([N+](=O)[O-])c1,10.8
9,O=C(CCN1C(=O)C2CC=CCC2C1=O)Nc1cc(C(F)(F)F)ccc1N1CCCC1 (stereo not drawn),14.4
10,Cc1nc(SCC(=O)N2CC(=O)Nc3ccccc32)c2c(C)c(C)sc2n1,11.6
11,Cc1csc(NC(=O)C2CCC(C)(C(=O)O)C2(C)C)n1 (stereo not drawn),12.7
12,Cn1nc(C(F)(F)F)c(/C=N/OC(=O)c2ccccc2)c1SCc1ccc(Cl)cc1,8.02
13,Cc1ccc2c(cnn2C(=O)CCCC(=O)NCc2ccc(F)cc2)c1,13.2
14,O=C(c1snnc1-c1ccccc1)N1CCOCC1,9.48
15,N/C(CS(=O)(=O)c1ccc(F)cc1)=N\O,15.7
16,O=C(NC1CCCCCC1)C(=S)N1CCOCC1,8.01
17,Cc1ccc2c(C)nc(Nc3nc(CSc4nnc(C)s4)cc(=O)[nH]3)nc2c1,9.91
18,CCOC(=O)Cc1csc(N)n1,7.66
19,Cc1ccc(-c2nn(-c3cccc(F)c3)cc2CNCc2cccnc2)o1,3.36
20,O=C(NCCOc1ccccc1)c1ccccc1[N+](=O)[O-],17.7
21,O=C(CCCN1C(=O)c2ccccc2C1=O)NCCCN1CCOCC1,20.3
